Among all 48,000 compounds or so, about 550 (1.1%) were called active. Inconclusive results (about 4%) are left out. Cut-off read from the data, not from the text of the source: active = potency below about 15 µM; inconclusive = mostly about 16 µM to 33 µM; inactive = weaker than that. This is one part of the list.
Each compound was assayed against Lysosomal acid glucosylceramidase (Homo sapiens) (UniProt P04062) (assay: Glucocerebrosidase). Conditions: purified enzyme, resorufin glucoside fluorescence (screen aimed at inhibitors), 20 min.
Sequence of UniProt P04062 (P04062 whole entry, looked up): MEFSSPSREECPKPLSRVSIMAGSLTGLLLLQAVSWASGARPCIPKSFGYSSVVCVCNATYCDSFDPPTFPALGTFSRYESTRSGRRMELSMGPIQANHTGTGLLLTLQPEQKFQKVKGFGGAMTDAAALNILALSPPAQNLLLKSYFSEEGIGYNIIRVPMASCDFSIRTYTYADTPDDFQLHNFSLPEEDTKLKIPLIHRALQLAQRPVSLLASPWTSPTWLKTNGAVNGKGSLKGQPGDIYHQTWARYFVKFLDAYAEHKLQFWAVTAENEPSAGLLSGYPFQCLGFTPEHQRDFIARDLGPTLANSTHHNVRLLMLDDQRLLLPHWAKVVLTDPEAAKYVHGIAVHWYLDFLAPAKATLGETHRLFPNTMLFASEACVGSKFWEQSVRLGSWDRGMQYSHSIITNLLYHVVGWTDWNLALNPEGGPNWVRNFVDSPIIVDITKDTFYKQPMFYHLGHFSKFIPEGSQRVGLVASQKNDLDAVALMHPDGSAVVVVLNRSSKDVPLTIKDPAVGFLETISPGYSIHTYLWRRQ
Outline: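 Wild-type enzyme at 0.2 nM final in 50mM citric acid/KH2PO4, 10mM sodium taurocholate, 0.01% tween-20, pH 5.9, with resorufin beta-D-glucopyranoside at 30 uM final. Compounds titrated, 20 min at RT, red fluorescence read; AC50 from titration.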
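Note: the screen sought inhibitors.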
Potency is the fitted concentration of half-maximal effect.

Potency, inactive:
COc1ccccc1-c1c(C)c(C)nc(N)c1C#N > 76.9 µM
CCSc1ccccc1C(=O)Nc1cccc(OC)c1 > 76.9 µM
Cc1cc(Cl)c(S(=O)(=O)N2CCSCC2)cc1OCC(N)=O > 76.9 µM
COc1ccc(CN(C(=O)c2ccco2)c2ccc(Br)cc2)cc1OC > 76.9 µM
CCCCN1C(=O)C(O)(CC(=O)c2c(C)n[nH]c2C)c2cc(Br)ccc21 (stereo unspecified) > 76.9 µM
CC(C)N(C(=O)Cn1cnc2c(cnn2-c2ccccc2Cl)c1=O)C(C)C > 76.9 µM
CCSc1ccccc1C(=O)N1CCN(Cc2ccc3c(c2)OCO3)CC1 > 76.9 µM
Cc1ccc(C)c(N2CCN(C(=O)C3CCN(c4nc(C)cc(C)n4)CC3)CC2)c1 > 76.9 µM
O=C(CCS(=O)(=O)c1ccc(Br)cc1)N1CCN(Cc2ccccc2)CC1 > 76.9 µM
Nc1nc(CSc2nnc(-c3cccc(F)c3)n2-c2ccccc2)nc(N2CCOCC2)n1 > 76.9 µM
O=C(O)CSC1c2ccccc2C(=O)N1Cc1ccccc1 (stereo unspecified) > 76.9 µM
COC(=O)c1cc(CSc2nc3ccc(C)cc3[nH]2)oc1C > 76.9 µM
CSc1nsc(SCc2ccc(F)cc2)n1 > 76.9 µM
CCCCCOc1ccc(C(=O)NC(CCC)C(=O)O)cc1 (stereo unspecified) > 76.9 µM
CCOC(=O)CSc1nc2cc(C)ccc2cc1C#N > 76.9 µM
CCCCOc1ccc(OC(=O)c2cccnc2)cc1 > 76.9 µM
CS(=O)(=O)N1CCN(c2ccccc2NC(=O)Cc2ccc(Cl)cc2)CC1 > 76.9 µM
COc1ccc(CNc2nc3c(c(=O)n(Cc4ccc(Br)cc4)c(=O)n3C)n2C)cc1 > 76.9 µM
CCn1c(SCC(=O)Nc2nccs2)nnc1-c1ccccc1 > 76.9 µM
c1ccc(-n2nnnc2SCc2cn3ccccc3n2)cc1 > 76.9 µM
COc1cccc(Oc2cncnc2-c2ccc(OC)cc2O)c1 > 76.9 µM
COC(=O)CSc1nc(C(C)C)nc2ccccc12 > 76.9 µM
O=c1o[nH]c(-c2ccccc2)c1C1=NCCCCC1 > 76.9 µM
Cc1cccc(NC(=O)CSc2nnc(CSc3nc(C)cc(C)n3)n2Cc2ccco2)c1 > 76.9 µM
CCOC(=O)C(C)Sc1nnc(-c2ccccc2O)n1Cc1ccccc1 (stereo unspecified) > 76.9 µM
CCc1oc(C(=O)O)cc1CN(CC)CC > 76.9 µM
O=C(CCC1CCCC1)N1CCN(C2CCCC2)CC1 > 76.9 µM
CCOc1ccccc1N(C(=O)c1snc(C(N)=O)c1N)C(C(=O)NCCC(C)C)c1ccco1 (stereo unspecified) > 76.9 µM
Cn1nc(C(C)(C)C)cc1C(=O)Nc1nc2c(s1)C(=O)CC(C)(C)C2 > 76.9 µM
CCOc1ccc(-c2nnc(-c3ccncc3)o2)cc1 > 76.9 µM
CC1CN(c2oc(-c3ccco3)nc2C#N)CC(C)O1 (stereo unspecified) > 76.9 µM
Cc1ccc(/C=c2\sc3nc(-c4ccccc4Br)nn3c2=O)o1 > 76.9 µM
O=C(COC(=O)C1(c2ccccc2)CC1)N1CCN(c2ccc(F)cc2)CC1 > 76.9 µM
CC1=C(Sc2nc3ccccc3[nH]2)C(=O)NC(C)(C)C1 > 76.9 µM
Cc1ccccc1OC(C)C(=O)NC1CCCC1 (stereo unspecified) > 76.9 µM
CCC(=O)NCCc1cc2cc(C)c(C)cc2[nH]c1=O > 76.9 µM
CC(C)COP(=O)(c1ccc(N(C)C)cc1)C(O)c1ccncc1 (stereo unspecified) > 76.9 µM
CCSc1ccc2nnc(-c3ccc(F)cc3)n2n1 > 76.9 µM
CCOC(=O)c1ccccc1NC(=O)CSc1nnc(Cc2cccn2C)n1-c1ccc(F)cc1
CCCCOc1ccc(/C(O)=C2/C(=O)C(=O)N(CCN(C)C)C2c2ccc(O)c(OC)c2)cc1 (stereo unspecified) > 76.9 µM
CC(=O)c1cccc(NC(=O)Nc2ccc(C(=O)N3CCOCC3)cc2)c1 > 76.9 µM
CCN1CSC(=S)N(Cc2ccc(OC)cc2)C1 > 76.9 µM
CCCn1c(SCC(=O)NCCc2ccccc2)nnc1-c1cccnc1 > 76.9 µM
O=C(NCCC1=CCCCC1)c1ccc(Cl)c(S(=O)(=O)N2CCOCC2)c1 > 76.9 µM
CC(C)OC(=O)C1C2C=CC3(CN(CC4CCCO4)C(=O)C13)O2 (stereo unspecified) > 76.9 µM
COc1ccc(-c2nc(CN3CCC(C(=O)NC4CCCc5ccccc54)CC3)c(C)o2)cc1OC (stereo unspecified) > 76.9 µM
Cc1c(OCc2nn[nH]n2)ccc2c(-c3ccccc3)cc(=O)oc12 > 76.9 µM
CCOC(=O)N1CCN(C(=O)CCN2C(=O)COc3ccc(C)cc32)CC1 > 76.9 µM
CSc1ccc(Cl)c(C(=O)OCC(=O)N2CCOCC2)c1 > 76.9 µM
CC1(C)Cc2c(sc3c2c2ncnn2c2nnc(SCC(=O)NCc4ccco4)n32)CO1 > 76.9 µM
COc1cccc(NS(=O)(=O)c2ccc3[nH]cc(C(=O)NCCN4CCOCC4)c(=O)c3c2)c1 > 76.9 µM
O=C(NCc1ccccc1)C1CCN(C(=O)NCc2ccccc2)CC1 > 76.9 µM
O=C(CCN1C(=O)C2CC=C(Cl)CC2C1=O)NCc1ccco1 (stereo unspecified) > 76.9 µM
NC(=O)c1cn(-c2ccccc2)nc1-c1cccnc1 > 76.9 µM
Cc1c(C(=O)N2CCOCC2)sc2nc(-c3ccccc3)cn12 > 76.9 µM
COC(=O)c1ccc(N2CCN(C)CC2)c(NC(=O)COc2ccc(OC)cc2)c1 > 76.9 µM
Cc1cc(C(=O)N(C)CC(=O)Nc2ccccc2C(F)(F)F)c(C)o1 > 76.9 µM
CCOC(=O)N1CCN(CC(=O)c2c(C)[nH]c3ccccc23)CC1 > 76.9 µM
CCCCNC(=O)CCn1c(=O)c2ccccc2n(CC(=O)Nc2ccccc2OCC)c1=O
O=C(N1CCOCC1)N1CCN(S(=O)(=O)N2CCCCC2)CC1 > 76.9 µM
O=C(COc1ccc(-n2cnnn2)cc1)NC1CCCCC1 > 76.9 µM
CCOC(=O)c1c(C)[nH]c(C(=O)CSc2nnc(CC(C)c3ccccc3)o2)c1C (stereo unspecified) > 76.9 µM
Cc1noc(C)c1CN1C(=O)NC2(CCCCCCC2)C1=O > 76.9 µM
CCCn1c(C)cc(C(=O)COc2ncnc3sccc23)c1C > 76.9 µM
CCc1nn2c(=O)cc(N3CCN(c4cc(C)nc5ccccc45)CC3)nc2s1 > 76.9 µM
N#Cc1cnc(SCC(=O)Nc2ccccc2C(F)(F)F)nc1N > 76.9 µM
Cc1cc(C)n(-c2nc3c(c(=O)[nH]c(=O)n3C)n2Cc2cccc(Br)c2)n1 > 76.9 µM
CCn1nc(NC(=O)c2ccncc2)c2cc3ccc(C)cc3nc21 > 76.9 µM
Cc1c(C(=O)NCc2cccs2)oc2ccccc12 > 76.9 µM
CC(=O)NCCOc1nc(N(C)C)nc(N2CCOCC2)n1 > 76.9 µM
CC(=O)Nc1ccc2nc(SCC(=O)O)sc2c1 > 76.9 µM
CCN(CC)CCNc1ccnc2cc(Cl)ccc12 > 76.9 µM
COc1ccc(OC)c(-c2nnc(-c3ccc(C)o3)o2)c1 > 76.9 µM
COC(=O)CSc1nnc(Cc2cc(=O)[nH]c(=O)[nH]2)n1-c1cccc(OC)c1 > 76.9 µM
Cn1c(-c2ccc3c(c2)OCO3)cnc1NCc1ccccc1 > 76.9 µM
Cc1ccc(NC(=O)c2oc3ccc(S(=O)(=O)N4CCOCC4)cc3c2C)cc1C > 76.9 µM
Cc1csc(SCCn2c(N3CCCC3)nc3c2c(=O)[nH]c(=O)n3C)n1 > 76.9 µM
CCC(=O)N1CCc2cc(S(=O)(=O)NCCC(=O)Nc3cc(C)cc(C)c3)ccc21 > 76.9 µM
Cc1cc(=O)[nH]c2ccccc12 > 76.9 µM
O=C(C1CCN(c2nnc(N3CCCC3=O)s2)CC1)N1CCN(Cc2ccc3c(c2)OCO3)CC1 > 76.9 µM
CCOC(=O)C1CCN(C(=O)Cn2cc(C(=O)c3ccco3)c3ccccc32)CC1 > 76.9 µM
CC(=O)Nc1sc2c(c1C(c1cccs1)N1CCOCC1)CCCC2 (stereo unspecified)
Cc1[nH]c(C)c(C(=O)O)c1CNC1CCCCC1C (stereo unspecified) > 76.9 µM
CCCc1ccc(OCCNC(=O)CC)cc1 > 76.9 µM
CCOC(=O)C1CCN(Cc2ccc(O)c3ncccc23)CC1 > 76.9 µM
CN(CCNC(=O)C1(O)c2ccccc2NC(=O)N1c1ccccc1)Cc1ccccc1 (stereo unspecified) > 76.9 µM
COC(=O)c1ccc(C(=O)OC)c(NC(=O)COc2ccccc2OC)c1 > 76.9 µM
COc1ccc(S(=O)(=O)N(C)CC(=O)Nc2ccccc2SC)cc1Cl > 76.9 µM
CC(=O)C1=C(O)C(=O)N(Cc2ccco2)C1c1ccccc1 (stereo unspecified) > 76.9 µM
Clc1cccc(Cl)c1Cn1cnc2c(N3CCCCCC3)ncnc21 > 76.9 µM
Cn1c(=O)c2nc(-c3ccccc3)oc2c2ccccc21 > 76.9 µM

From PubChem BioAssay AID360 (National Center for Advancing Translational Sciences (NCATS), 2006)
